Reference: paper PMC4336329 (PLoS ONE, 2015)
Hit rate of the full screen: of about 310,000 compounds, about 14,000 (4.5%) showed an effect of 50% or more. The effect is printed as a negative number. Some of the results follow.

These molecules were tested against human ether-à-go-go-related gene (hERG) potassium channel (human, UniProt Q12809) (assay: primary screen, population patch clamp on CHO cells stably expressing hERG).
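Note: peak tail current of the secondary pulse compared with the same well before compound.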

Sequence of human ether-à-go-go-related gene (hERG) potassium channel (Q12809 whole entry, looked up): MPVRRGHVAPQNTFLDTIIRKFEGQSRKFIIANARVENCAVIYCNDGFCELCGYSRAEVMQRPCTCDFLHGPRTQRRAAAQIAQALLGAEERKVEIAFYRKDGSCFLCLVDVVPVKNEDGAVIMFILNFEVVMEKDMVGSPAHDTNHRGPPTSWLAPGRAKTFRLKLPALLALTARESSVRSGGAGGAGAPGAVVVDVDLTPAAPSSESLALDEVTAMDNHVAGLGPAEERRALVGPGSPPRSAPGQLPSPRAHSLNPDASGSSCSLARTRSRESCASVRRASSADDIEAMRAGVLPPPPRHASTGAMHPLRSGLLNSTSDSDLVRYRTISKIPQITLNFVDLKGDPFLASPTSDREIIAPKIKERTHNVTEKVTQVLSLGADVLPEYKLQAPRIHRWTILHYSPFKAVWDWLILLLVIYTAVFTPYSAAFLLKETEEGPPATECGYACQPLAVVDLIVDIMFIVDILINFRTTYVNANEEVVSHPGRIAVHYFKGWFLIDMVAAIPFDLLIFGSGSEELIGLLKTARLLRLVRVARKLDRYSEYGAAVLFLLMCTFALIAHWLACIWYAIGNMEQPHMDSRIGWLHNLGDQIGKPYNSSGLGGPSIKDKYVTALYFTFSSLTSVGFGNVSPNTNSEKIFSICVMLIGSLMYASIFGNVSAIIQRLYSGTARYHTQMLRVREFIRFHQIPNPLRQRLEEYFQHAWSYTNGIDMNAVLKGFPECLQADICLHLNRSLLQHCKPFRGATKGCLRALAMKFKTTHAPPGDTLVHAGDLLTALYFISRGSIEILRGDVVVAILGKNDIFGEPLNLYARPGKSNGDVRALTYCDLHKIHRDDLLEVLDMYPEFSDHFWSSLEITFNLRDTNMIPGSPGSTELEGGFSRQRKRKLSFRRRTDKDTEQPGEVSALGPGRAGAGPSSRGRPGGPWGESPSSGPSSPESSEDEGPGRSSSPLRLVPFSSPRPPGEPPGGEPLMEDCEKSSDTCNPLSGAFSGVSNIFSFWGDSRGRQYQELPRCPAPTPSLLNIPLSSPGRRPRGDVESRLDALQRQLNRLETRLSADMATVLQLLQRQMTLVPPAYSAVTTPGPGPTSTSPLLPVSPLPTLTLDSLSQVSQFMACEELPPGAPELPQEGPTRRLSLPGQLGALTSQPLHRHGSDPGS

SMILES | hERG current change (%, negative = inhibition) at 10uM [%]
COc1ccc(-c2c(NC(=O)c3ccco3)oc3ccccc3c2=O)cc1OC | 16.6
CC(SC(=S)N(C)Cc1cccs1)C(=O)O (stereo not drawn) | 10.7
Cl.OCc1ccccc1CNCc1ccccc1 | 3.19
O=C(NCc1ccccc1Cl)c1cnc2n(c1=O)CCS2 | -0.561
O=C(N/N=C/c1cn(-c2ccccc2)nc1-c1ccc2c(c1)OCCO2)c1ccncc1 | 15.2
CC(=O)C1C(c2ccc(OC(F)F)cc2)NC(=O)NC1(O)C(F)(F)F (stereo not drawn) | -7.21
CS(=O)(=O)NCCSCc1ccccc1 | -13.2
O=C(NCCCn1ccnc1)/C(=C/c1ccco1)NC(=O)c1cccs1 | -53.2
CC1=NCCN1S(=O)(=O)c1cc([N+](=O)[O-])ccc1Cl | 4.1
CN(C)Cc1ccc(F)cc1Sc1ccc(Cl)cc1Cl.Cl | 10.3
CCN(CC)CC(=O)NN=C(c1ccccc1)c1ccccc1 | -77.6
O=[N+]([O-])C(=C1SCCS1)C(=C(Cl)Cl)N1CCCCC1 | 15.5
CCCCOc1ccc(CNC(=S)N/N=C/c2ccc(OC)c(OC)c2)cc1 | 16.7
CC1OC(Nc2ccc(OC(F)(F)F)cc2)C(O)C(O)C1O (stereo not drawn) | 0.769
N#CCC(=O)N/N=C/c1ccc(OC2CSC2)cc1 | 36.2
Cc1cc(C)c2cc(C(c3nnnn3CC3CCCO3)N3CCN4CCCC4C3)c(=O)[nH]c2c1 (stereo not drawn) | -14.7
O=C(CN1CCCC1)Nc1ccc(Oc2ccc(NC(=O)CN3CCCC3)cc2)cc1 | 17.3
Cc1ccc(C2=NCCNC2=O)c(C)c1 | 0.813
O=[N+]([O-])c1ccc2nc(N3CCCC3)sc2c1 | 15.8
Cc1occc1C(=O)Nc1ccccc1C(=O)O | 2.37
Cl.N=c1sccn1CC(=O)Nc1ccccc1Cc1ccccc1 | -17.3
CCN(CC)C(=O)CSc1nnc([C@H](CCSC)NC(=O)OC(C)(C)C)o1 | -8.26
Cc1ccccc1NC(=S)NCCC(c1ccccc1)c1ccccc1 | 2.76

SMILES | hERG current change (%, negative = inhibition) at 10uM [%]
Cc1cc(=O)n2c(n1)NC(=NCc1ccccc1)NC2c1ccccc1 (stereo not drawn) | 10.4
CC(C)(C)c1ccc(-c2nnc3sc(-c4ccncc4)nn23)cc1 | -10.9
COC(=O)c1ccccc1S(=O)(=O)NNC(=O)c1ccccc1-n1cccc1 | 18.9
COc1ccc(S(=O)(=O)NC(C)(C)C)cc1-c1nnc2c3ccccc3c(C)nn12 | -5.05
Cc1nc2ccc(Cl)cc2c(-c2ccccc2)c1C(=O)N(C)C.Cl | -5.56
O=C(N/N=C/C1CC2CCC1C2)c1ccc2c(c1)OCO2 (stereo not drawn) | -2.35
CC(=O)NS(=O)(=O)c1ccc(N=NN2CCCCC2)cc1 | -1.66
O=C1CC(N2CCN(C(c3ccccc3)c3ccccc3)CC2)C(=O)N1Cc1ccc(N2CCCC2=O)cc1 (stereo not drawn) | -12.3
Fc1ccc2c(c1)Sc1ccc(Cl)cc1CC2N1CCN(CCC2OCCO2)CC1 (stereo not drawn) | -8.68
O=C(c1ccc(Cl)c(Cl)c1)N(Cc1ccco1)c1ccc(O)cc1 | -17
O=S(=O)(c1ccc(NC(=S)NCc2ccco2)cc1)N1CCCCC1 | 4.65
CC(=O)Cn1cnc2scc(-c3ccc(C)c(C)c3)c2c1=O | 13
O=C(NCc1cccnc1)C1CCC(c2ccc(Cl)cc2)CC1 (stereo not drawn) | -15.9
CCOC(=O)CSc1[nH]c(=O)cc(C)c1C#N | 10.1
O=C(NC1CCCC1)c1ccc(S(=O)(=O)N2CCOCC2)cc1 | 2.34
Cc1ccccc1CCNC(=O)c1ccc(Cl)c(S(=O)(=O)N2CC(C)OC(C)C2)c1 (stereo not drawn) | -10.7
CC(C)C[C@H]1CN=C(Nc2ccccc2)N1CC(C)C | -3.04
O=C(CCc1ccccc1)C(=O)N1CCCC(C(=O)c2cccc(Cl)c2)C1 (stereo not drawn) | -18.2
CCOC(=O)c1cnc2c(C)c(-c3ccccc3)[nH]n2c1=O | 14.5
COc1ccc(N2CCN(C(CNC(=O)C(=O)NCc3ccncc3)c3ccco3)CC2)cc1 (stereo not drawn) | -6.1
Cc1coc2c1c(C)cc1oc(=O)c(CC(=O)NCCCN3CCCC3=O)c(C)c12 | -7.63
Cc1ccc(-n2c(SCC(=O)NCc3ccco3)nnc2-c2cccnc2)c(C)c1 | -34.4
Cc1cccc(CN2CCN(CC(=O)NCCCN3CCCC3=O)C2=O)c1 | 7

SMILES | hERG current change (%, negative = inhibition) at 10uM [%]
CSCC(=O)NC1CCCc2c1cnn2-c1ccc(C)c(C)c1 (stereo not drawn) | -28
CCCN(CCC)S(=O)(=O)c1ccc(C(=O)Nc2nnc(-c3cccc(OC)c3)o2)cc1 | 4.14
Cc1cc(=O)oc2cc(OC(C)C(=O)NCCc3ccc(S(N)(=O)=O)cc3)ccc12 (stereo not drawn) | 13.5
Cc1ccc(NC(=O)CN2C(=O)NC3(CCCCCC3)C2=O)cc1Cl | 13.4
Cc1ccc(NC(=O)CSCC(=O)N2c3ccccc3CCc3ccccc32)cc1 | 7.66
COc1ccc(NC(=O)CC2Oc3ccccc3NC2=O)c(OC)c1 (stereo not drawn) | 24.4
NC(=O)N1OCC2COc3ccc4ccccc4c3C21 (stereo not drawn) | -26.9
Cl.O=C(OCCN1CCCCC1)c1cc2ccccc2o1 | -13.5
COc1ccccc1NS(=O)(=O)c1ccc(C)c(C(=O)NCC2(N(C)C)CCCCC2)c1 | -42.9
O=C(CN(C(=O)c1csnn1)c1ccc(Cl)cc1)NCc1ccc2c(c1)OCO2 | 24.3
Cc1oc(CC(C)C)cc1C(=O)NCCCC(=O)O | 13.6
O=[N+]([O-])c1ccc(/C=N/Nc2cc(Cl)nc(-c3ccccc3)n2)cc1 | 2.34
Cc1ccc(C2=NS(=O)(=O)N(C)C(C(=O)NCc3cccs3)=C2)cc1 | -8.57
C/C=C/C(=O)Nc1nnc(C2CCCCC2)s1 | 3.93
Cc1ccc(NC(=O)CN(C)CC(=O)Nc2ccc(N3CCOCC3)cc2)c([N+](=O)[O-])c1 | -0.559
CCOC(=O)C1=C(C)N=c2s/c(=C/c3ccco3)c(=O)n2C1c1cccc(OC)c1 (stereo not drawn) | 6.27
CCN1CCN(C(CNS(=O)(=O)c2ccccc2)c2ccccc2)CC1 (stereo not drawn) | -34.8
CCCCSc1nc(O)cc(=O)n1CC | 1.65
O=C(Nc1c(F)cccc1F)c1cnc(N2CCN(c3ccccn3)CC2)c2ccccc12 | -4.56
CN(C)CCOC(=O)COc1ccc(Cl)cc1.Cl | -3.97
C/C(=N\NC(=O)c1nnn(-c2nonc2N)c1C)c1ccc(OCc2ccccc2)cc1 | 15.2
CC(=O)Nc1nc(-c2ccc3c(c2)OCO3)cs1 | 3.99
O=C(Cn1cnc2c(nnn2Cc2ccc(Cl)cc2)c1=O)OCc1ccccc1 | 2.23

SMILES | hERG current change (%, negative = inhibition) at 10uM [%]
COc1cccc(CNC(=O)c2cnc(-c3ccccn3)nc2C(F)(F)F)c1 | -0.948
O=C(Nc1ccc(N2CCN(C(=O)c3cccs3)CC2)cc1)c1ccco1 | 17.7
O=C(N/N=C/c1cccnc1)C1CCCCC1 | 30.3
Cc1ccc(NC(=O)C2(N3CCC3=O)CCCCC2)cc1 | 6.92
O=C(CSc1ccccc1)N1CCN(C(=O)c2ccco2)CC1 | -10.1
CCOC(=O)N1CCC(NC(=O)CC2C(=O)NCCN2Cc2cccc(F)c2F)CC1 (stereo not drawn) | -19.3
O=S(=O)(NCc1ccccc1)c1cccc2cccnc12 | -8.15
Cc1cccc(C)c1NC(=O)C(C)N1CCCCC1 (stereo not drawn) | 9.05
COc1ccc(NC(=O)c2cc([N+](=O)[O-])ccc2N2CCNCC2)cc1 | -44.5
CC1(C)NC(C)(C)/C(=C\c2cccs2)C(=O)C1=O | 26.6
CCN(CC)S(=O)(=O)c1ccc(N2CCOCC2)c(NC(=O)Cc2ccccc2F)c1 | -27.1
CC(=O)C1=C(O)C(=O)N(C)C1c1ccccc1[N+](=O)[O-] (stereo not drawn) | 14.1
C=C1C(=O)O[C@@H]2[C@H]3O[C@]3(C)CC/C=C(\C)CC[C@@H]12 | 15.8
Cc1occc1C(=O)Nc1nnc(C(F)(F)F)s1 | 8.77
C/C(CC(=O)Nc1cc(Cl)ccc1Cl)=N\NC(N)=S | -6.37
COc1ccc(C)cc1-n1c(SCC(=O)NC2CC2)nc2ccccc2c1=O | -17.4
O=P(CCCO)(Cc1ccccc1)Cc1ccccc1 | 16.7
COc1ccc(OC)c(Nc2nc(-c3sc(NC(=O)C(C)(C)C)nc3C)cs2)c1 | 12.5
CC(=O)N1[C@@H]2CC3C4CC=C5C[C@@H](O)CC[C@]5(C)C4CC[C@]3(C)[C@@]21C(C)=O (stereo partly drawn) | 9.98
CSc1cc(-c2ccc(Cl)cc2)c(C(=O)NN)s1 | -9.98
CCCn1nnnc1SCC(=O)N1CCCc2ccccc21 | 9.32
